Results reported in article PMC11995724, “Antibiotic target discovery by integrated phenotypic and activity-based profiling of electrophilic fragments” (Cell chemical biology, 2025).
Screen size: about 3,200 compounds; about 110 (3.4%) showed an effect of 50% or more. Some of the results follow.

Each compound was assayed on T1, V. cholerae SAD30. Settings: relative growth, OD600, LB; 25 µM; inhibitor.
T1 construct: SAD30
Parameters: species or system S. aureus MSSA476 (TSB) or V. cholerae SAD30 (LB); 384-well bacterial growth screen at 25 uM, OD600 relative to DMSO control

SMILES | % of control remaining [%]
COc1ccccc1N1C(=O)C=CC1=O [10-O10, 1-(2-methoxyphenyl)-2,5-dihydro-1H-pyrrole-2,5-dione] | 26.0277
C=CC(=O)N(Cc1c(C)cccc1C)C1CCc2nc(C)nn2C1 (stereo not shown) [1-B11, N-[(2,6-dimethylphenyl)methyl]-N-{2-methyl-5H,6H,7H,8H-[1,2,4]triazolo[1,5-a]pyridin-6-yl}prop-2-enamide] | 89.0882
CC(C)n1cc(C2=CCCN(C(=O)CCl)CC2)nn1 [5-F05, 2-chloro-1-{4-[1-(propan-2-yl)-1H-1,2,3-triazol-4-yl]-2,3,6,7-tetrahydro-1H-azepin-1-yl}ethan-1-one] | 101.208
CCOc1ccccc1NC(=O)C(C)Cl (stereo not shown) [6-M10, 2-chloro-N-(2-ethoxyphenyl)propanamide] | 86.1503
O=C(CCl)Nc1c(Cl)c(Cl)cc(Cl)c1Cl [4-O16, 2-chloro-N-(2,3,5,6-tetrachlorophenyl)acetamide] | 98.512
C=CC(=O)N(Cc1ccccc1)C1CCOc2ccc(OC)cc21 (stereo not shown) [1-O17, N-benzyl-N-(6-methoxy-3,4-dihydro-2H-1-benzopyran-4-yl)prop-2-enamide] | 82.9596
O=C(CCl)NCCc1c(F)cccc1F [5-F20, 2-chloro-N-[2-(2,6-difluorophenyl)ethyl]acetamide] | 99.5272
C=CC(=O)N1CCC(C(=O)N2Cc3ccc([N+](=O)[O-])cc3C2)CC1 [2-F04, 1-[4-(5-nitro-2,3-dihydro-1H-isoindole-2-carbonyl)piperidin-1-yl]prop-2-en-1-one] | 98.2245
Cc1ccc(C=C(C#N)C(=O)Nc2ccccc2C)cc1 [8-G16, 2-cyano-N-(2-methylphenyl)-3-(4-methylphenyl)prop-2-enamide] | 72.8076
Cc1ccc(C2=NN(C(=O)CCl)C(c3cccs3)C2)cc1 (stereo not shown) [4-O22, 2-chloro-1-[3-(4-methylphenyl)-5-(thiophen-2-yl)-4,5-dihydro-1H-pyrazol-1-yl]ethan-1-one] | 109.036
C=CC(=O)NCc1ccc(C(=O)N2CCC(c3nnc(C)o3)CC2)cc1 [2-M18, N-({4-[4-(5-methyl-1,3,4-oxadiazol-2-yl)piperidine-1-carbonyl]phenyl}methyl)prop-2-enamide] | 91.5854
CC(Cl)C(=O)N1CC(Oc2ccc(C#N)cc2)C1 (stereo not shown) [6-J15, 4-{[1-(2-chloropropanoyl)azetidin-3-yl]oxy}benzonitrile] | 92.0656
COC(=O)[C@H]1[C@@H](C(=O)CCl)C1(C)C (racemic) [10-A11, rac-methyl (1R,3S)-3-(2-chloroacetyl)-2,2-dimethylcyclopropane-1-carboxylate] | 103.955
Cc1cccc(C)c1NC(=O)CN(C)C(=O)CCl [5-A13, 2-chloro-N-{[(2,6-dimethylphenyl)carbamoyl]methyl}-N-methylacetamide] | 104.907
Cc1ccc(C)c(CN(CCO)C(=O)CCl)c1 [5-K20, 2-chloro-N-[(2,5-dimethylphenyl)methyl]-N-(2-hydroxyethyl)acetamide] | 98.1822
N#CC(=Cc1ccsc1)C(=O)NCc1ccc(Cl)cc1 [8-I15, N-[(4-chlorophenyl)methyl]-2-cyano-3-(thiophen-3-yl)prop-2-enamide] | 64.5139
C=CC(=O)NCCC(=O)N1CCN(c2nc(C)cs2)C(C)C1 (stereo not shown) [2-F06, N-{3-[3-methyl-4-(4-methyl-1,3-thiazol-2-yl)piperazin-1-yl]-3-oxopropyl}prop-2-enamide] | 90.3503
C=CC(=O)N1CCC(C(=O)N[C@H]2CCOc3c(F)cccc32)CC1 [3-F12, N-[(4S)-8-fluoro-3,4-dihydro-2H-1-benzopyran-4-yl]-1-(prop-2-enoyl)piperidine-4-carboxamide] | 97.2064
C=CC(=O)NCc1cn(C)c2ccccc12 [1-G21, N-[(1-methyl-1H-indol-3-yl)methyl]prop-2-enamide] | 92.6756
CCCCNC(=O)C(C#N)=Cc1ccncc1 [8-P17, N-butyl-2-cyano-3-(pyridin-4-yl)prop-2-enamide] | 82.3249
CC(Cl)C(=O)Nc1ccc(NC(=O)c2cccs2)cc1 (stereo not shown) [6-G07, N-[4-(2-chloropropanamido)phenyl]thiophene-2-carboxamide] | 83.8752
Cc1cc(C)cc(OCCN(C)C(=O)CCl)c1 [6-F03, 2-chloro-N-[2-(3,5-dimethylphenoxy)ethyl]-N-methylacetamide] | 83.4202
O=C(CCl)Cc1ccc(C(F)(F)F)cc1 [10-C19, 1-chloro-3-[4-(trifluoromethyl)phenyl]propan-2-one] | 79.6415

SMILES | % of control remaining [%]
CC(=O)c1cccc(S(=O)(=O)N2CCN(C(=O)CCl)CC2)c1 [4-F05, 1-[4-(3-acetylbenzenesulfonyl)piperazin-1-yl]-2-chloroethan-1-one] | 103.515
C=CC(=O)N1CCN(c2nc(CC)ns2)CC1 [1-J20, 1-[4-(3-ethyl-1,2,4-thiadiazol-5-yl)piperazin-1-yl]prop-2-en-1-one] | 102.306
N#CC(=Cc1cccs1)C(=O)Nc1ccc(C(=O)O)cc1 [8-A04, 4-[2-cyano-3-(thiophen-2-yl)prop-2-enamido]benzoic acid] | 94.9694
Cc1ccc(CN(Cc2c(C)noc2C)C(=O)CCl)c(C)c1 [5-N03, 2-chloro-N-[(3,5-dimethyl-1,2-oxazol-4-yl)methyl]-N-[(2,4-dimethylphenyl)methyl]acetamide] | 109.951
O=C(CCl)NCCOc1cccc(F)c1 [6-G03, 2-chloro-N-[2-(3-fluorophenoxy)ethyl]acetamide] | 108.75
COc1cccc(NC(=O)C(C#N)=Cc2csnn2)c1 [8-K04, 2-cyano-N-(3-methoxyphenyl)-3-(1,2,3-thiadiazol-4-yl)prop-2-enamide] | 81.5092
O=C(CCl)NCC1CCCN(C(=O)C(F)(F)F)C1 (stereo not shown) [7-N18, 2-chloro-N-{[1-(2,2,2-trifluoroacetyl)piperidin-3-yl]methyl}acetamide] | 84.0575
Cl.O=C(CCl)NC1c2ccccc2CCC1n1ccnc1 (stereo not shown) [7-N14, 2-chloro-N-[2-(1H-imidazol-1-yl)-1,2,3,4-tetrahydronaphthalen-1-yl]acetamide hydrochloride] | 80.3568
O=C(CCl)c1cn(-c2ccc(F)cc2)nn1 [10-F05] | 0.6234
Cc1oc(C(N)=O)cc1C(=O)CCl [10-M05, 4-(2-chloroacetyl)-5-methylfuran-2-carboxamide] | 20.4169
N#CC(=Cc1ccc(O)cc1)C(=O)NCc1ccco1 [9-N10, 2-cyano-N-[(furan-2-yl)methyl]-3-(4-hydroxyphenyl)prop-2-enamide] | 90.3467
CC(Cl)C(=O)NC1CCCCCC1 (stereo not shown) [5-O21, 2-chloro-N-cycloheptylpropanamide] | 100.704
CCN(Cc1cccs1)C(=O)CCl [5-F07, 2-chloro-N-ethyl-N-[(thiophen-2-yl)methyl]acetamide] | 97.1735
C=CC(=O)NCc1ccc(C(=O)N2CCNC(=O)CC2)cc1 [3-I04, N-{[4-(5-oxo-1,4-diazepane-1-carbonyl)phenyl]methyl}prop-2-enamide] | 102.676
COc1ccc(NC(=O)C(C#N)=Cc2cccc(Cl)c2Cl)cc1 [8-N04, 2-cyano-3-(2,3-dichlorophenyl)-N-(4-methoxyphenyl)prop-2-enamide] | 74.7111
COc1cc(CN(C(=O)CCl)C2CCCOC2)ccc1C (stereo not shown) [5-E12, 2-chloro-N-[(3-methoxy-4-methylphenyl)methyl]-N-(oxan-3-yl)acetamide] | 97.3416
N#CC(=Cc1c[nH]c2ccccc12)C(=O)Nc1cccc2ncccc12 [9-N08, 2-cyano-3-(1H-indol-3-yl)-N-(quinolin-5-yl)prop-2-enamide] | 87.3555
CC(Cl)C(=O)Nc1c(C(C)C)cccc1C(C)C (stereo not shown) [4-B15, N-[2,6-bis(propan-2-yl)phenyl]-2-chloropropanamide] | 91.4384
N#CC(=Cc1cnn(-c2ccc(Cl)cc2)c1)C(=O)NC1CCCC1 [8-M10, 3-[1-(4-chlorophenyl)-1H-pyrazol-4-yl]-2-cyano-N-cyclopentylprop-2-enamide] | 74.3032
C=CC(=O)NC(CO)c1cccc(OC)c1 (stereo not shown) [2-E22, N-[2-hydroxy-1-(3-methoxyphenyl)ethyl]prop-2-enamide] | 111.657
C=CC(=O)Nc1ccc(C(C)CC(N)=O)cc1 (stereo not shown) [1-I16, 3-[4-(prop-2-enamido)phenyl]butanamide] | 92.6756
C=CC(=O)N1CCC(c2ccc(OC)c(F)c2)C1 (stereo not shown) [3-K19, 1-[3-(3-fluoro-4-methoxyphenyl)pyrrolidin-1-yl]prop-2-en-1-one] | 86.6201
Cc1csc(COC2CCN(C(=O)CCl)C2)n1 (stereo not shown) [5-M08, 2-chloro-1-{3-[(4-methyl-1,3-thiazol-2-yl)methoxy]pyrrolidin-1-yl}ethan-1-one] | 88.2631
